According to PubChem BioAssay AID588342 (National Center for Advancing Translational Sciences (NCATS), 2011):
About 25,000 (6.9%) of roughly 360,000 compounds were called active. The shares of active, inactive and inconclusive entries below differ from those in the screen. The call rests on the fitted dose curve; in most records, active means well fitted inhibition curve with a large enough effect; inconclusive means small, poorly fitted or top-dose-only effect; inactive means flat fitted curve, though single readings scatter. Potencies beside an inconclusive call are fits to weak or partial responses and may not hold up.

Target: Luciferin 4-monooxygenase (Photinus pyralis) (UniProt P08659)
Assay: qHTS profiling assay for firefly luciferase inhibitor/activator using purifed enzyme and Km concentrations of substrates (counterscreen for miR-21 project); further: nearly all actives have a fitted effect of over 55% in size;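 on activity change, negative = inhibition: plate controls were vehicle for no effect and reference inhibitor for full effect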
Conditions: purified FLuc, luminescence inhibition; activity change, negative = inhibition: at 57.5 µM (top of the series)
Procedure, shortened: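 Biochemical qHTS of compounds, final roughly 60 µM downward over six points, against 10 nM purified firefly luciferase using Km concentrations of substrates (10 uM D-luciferin, 10 uM ATP) in Tris acetate pH 7.5 buffer; luminescence output.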
Potency means the concentration at half of the fitted maximal effect; tags describe the fitted curve by direction and shape.

UniProt P08659, sequence (P08659 whole entry, looked up): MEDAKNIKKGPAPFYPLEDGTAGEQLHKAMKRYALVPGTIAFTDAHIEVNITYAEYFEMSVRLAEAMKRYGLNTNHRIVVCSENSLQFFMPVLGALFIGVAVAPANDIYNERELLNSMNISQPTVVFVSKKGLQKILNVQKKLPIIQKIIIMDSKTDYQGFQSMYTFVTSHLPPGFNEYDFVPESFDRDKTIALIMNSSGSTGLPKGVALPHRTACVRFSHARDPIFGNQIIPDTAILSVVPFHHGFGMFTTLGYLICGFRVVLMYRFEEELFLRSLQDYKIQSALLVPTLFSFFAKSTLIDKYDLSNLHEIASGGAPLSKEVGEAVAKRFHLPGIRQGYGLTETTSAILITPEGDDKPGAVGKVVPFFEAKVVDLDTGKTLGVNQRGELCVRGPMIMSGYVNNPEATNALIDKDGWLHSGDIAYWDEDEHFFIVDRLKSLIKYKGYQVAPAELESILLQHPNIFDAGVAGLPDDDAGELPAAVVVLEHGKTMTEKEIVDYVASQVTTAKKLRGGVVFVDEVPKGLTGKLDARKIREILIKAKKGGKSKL

Row | Compound | Potency | activity change, negative = inhibition
1 | COc1cccc(NC(=O)CSc2ccc(-c3sc(C)nc3C)nn2)c1 | inconclusive: 15.1 µM [inhibitor, partial curve, poor fit] | 
2 | O=C(CSc1nnc(SCc2ccccc2)s1)N/N=C/c1ccc(C(=O)O)cc1 | active: 2.39 µM | 
3 | COC(=O)c1ccccc1NC(=O)c1oc2ccc3c(c2c1C)C(=O)CC(C)(C)O3 | active: 5.36 µM | 
4 | CCC(Sc1ncc(S(=O)(=O)c2ccc(Cl)cc2)c(=O)[nH]1)C(=O)Nc1ccc(OC)cc1 (configuration not stated) | inconclusive: 9.53 µM [inhibitor, partial curve] | 
5 | CCOC(=O)Nc1ccc(Cc2ccncc2)cc1 | inconclusive: 16.9 µM [inhibitor, partial curve] | 
6 | COc1ccc(/C=C2\NC(=S)N(CC3CCCO3)C2=O)c(OC)c1 (configuration not stated) | active: 15.1 µM | 
7 | Cc1cc(C)c(NC(=O)C(=O)NCC(c2cccnc2)N2CCN(c3ccccc3F)CC2)c(C)c1 (configuration not stated) | inconclusive: 19 µM [inhibitor, partial curve, poor fit] | 
8 | CN(Cc1ccccc1)c1ccc(-c2nc(-c3ccccc3)no2)cc1[N+](=O)[O-] | inactive | 
9 | COc1ccccc1NC(=O)CSc1nc2c(oc3ccccc32)c(=O)n1-c1ccccc1F | inactive | 
10 | Cc1cccc(C(=O)NC(=O)Nc2c(C)cc(C)nc2C)c1 | inconclusive: 37.9 µM [inhibitor, partial curve, poor fit] | 
11 | Cc1cc2oc(C(=O)N(Cc3ccc(N(C)C)cc3)CC3CCCO3)c(C)c2cc1Cl (configuration not stated) | inactive | 
12 | CN1CCN(S(=O)(=O)c2cccc(C(=O)Nc3sc4c(c3C(N)=O)CCCC4)c2)CC1 | inconclusive: 23.9 µM [inhibitor, partial curve] | 
13 | COC(=O)c1c(-c2cccs2)csc1NC(=O)c1cccnc1 | active: 16.9 µM | 
14 | COC(=O)c1sc2nc(N)c(C#N)cc2c1N | inconclusive: 3.79 µM [inhibitor, full curve] | 
15 | COc1ccc(C(=O)N/N=C/C(=O)c2ccccc2)cc1 | active: 1.51 µM | 
16 | CCOc1ccc2nc(NC(=S)N(C)C)sc2c1 | active: 1.35 µM | 
17 | C/C(=N\NC(=O)COc1ccc(C(C)(C)C)cc1)c1ccc2c(c1)OCCO2 | active: 19 µM | 
18 | CCOC(=O)C(=CNc1cccc(C)c1C)C(=O)OCC | inconclusive: 23.9 µM [inhibitor, partial curve] | 
19 | CN(C)S(=O)(=O)c1cc(C(=O)OCCn2cnc3c2c(=O)n(C)c(=O)n3C)ccc1Cl | inactive | 
20 | O=C(NC(=S)NCCc1ccccn1)c1ccccc1 | inconclusive: 37.9 µM [inhibitor, partial curve, poor fit] | 
21 | Cc1ccc(F)cc1NC(=O)c1cccc(N(C)C)c1 | inconclusive: 21.3 µM [inhibitor, partial curve, poor fit] | 
22 | Cc1nn(C(C)C(=O)N/N=C/c2ccc(N(C)C)cc2)c(C)c1[N+](=O)[O-] (configuration not stated) | inactive | 
23 | O=C(NCCc1ccccn1)c1cc2ccccc2o1 | inconclusive: 21.3 µM [inhibitor, single point] | 
24 | O=C(Nc1ccc2ccccc2c1)c1cccc(F)c1 | active: 2.13 µM | 

Row | Compound | Potency | activity change, negative = inhibition
25 | COc1cc(C=C2C(=O)OC(C)(C)OC2=O)cc(Cl)c1OCC(=O)Nc1ccccc1 | inconclusive: 21.3 µM [inhibitor, partial curve, poor fit] | 
26 | OCCC1CN(Cc2cccn2-c2cccnc2)CCN1C1CCCC1 (configuration not stated) | inactive | 
27 | N#Cc1c(-c2cccs2)nc(SCc2ccc(Cl)cc2)[nH]c1=O | inactive | 
28 | O=C(Nc1nc2ccccc2[nH]1)c1ccc(Cl)c([N+](=O)[O-])c1 | inconclusive: 4.78 µM [inhibitor, partial curve] | 
29 | Cc1ccc(C)c(NC(=O)CCN2C(=O)[C@@H]3Cc4ccccc4CN3C2=O)c1 | inactive | 
30 | CCOC(=O)c1ccc(N=C2SC(C(=O)Nc3ccc(C(=O)O)cc3)CC(=O)N2Cc2cccs2)cc1 (configuration not stated) | inconclusive: 37.9 µM [inhibitor, partial curve, poor fit] | 
31 | COc1ccc(/C=C2\CCC(C3CCCC3)C2=O)c(OC)c1OC (configuration not stated) | active: 23.9 µM | 
32 | Cc1cc(C)nc(SCC(=O)NNS(=O)(=O)c2ccc(C#N)cc2)n1 | inactive | 
33 | O=C(Nc1cccc(S(=O)(=O)N2CCCCCC2)c1)c1ccc2c(c1)OCO2 | inconclusive: 21.3 µM [inhibitor, partial curve, poor fit] | 
34 | COc1ccc(-c2nc3ccccc3c(C(=O)Nc3ccc(S(=O)(=O)Nc4cc(C)on4)cc3)c2C)cc1 | inconclusive: 15.1 µM [inhibitor, partial curve] | 
35 | Cc1cccc2sc(NC(=O)c3ccc(NS(=O)(=O)c4cccs4)cc3)nc12 | inactive | 
36 | COc1ccc(NC(=O)C2CC(=O)N(Cc3ccco3)C2)cc1Cl (configuration not stated) | inactive | 
37 | Cc1ccc(O)c(NC(=O)c2nc3nc(C)cc(C(F)F)n3n2)c1 | inactive | 
38 | COc1cccc(N2CCN(C(=O)c3nc(-c4ccc(Cl)cc4)n4c3CCCCC4)CC2)c1 | inactive | 
39 | O=C(COc1ccc2ccccc2c1Br)NCc1ccccn1 | inconclusive: 26.9 µM [inhibitor, single point] | 
40 | Cc1c(OCC(=O)NCc2cccnc2)ccc2c3c(c(=O)oc12)CCC3 | inconclusive: 26.9 µM [inhibitor, partial curve, poor fit] | 
41 | CCn1c(CC(=O)Nc2ccccc2)nnc1SCC(=O)Nc1nnc(C)s1 | inactive | 
42 | Cc1ccc(NC(=O)c2ccc(CN3CC(=O)N4CCCCC4C3=O)cc2)cc1C (configuration not stated) | inconclusive: 26.9 µM [inhibitor, partial curve, poor fit] | 
43 | Cc1nc(-c2ccc(NC(=O)c3ccc(Br)o3)cc2)cs1 | active: 1.51 µM | 
44 | Cc1oc2cc(Br)c(O)c(Br)c2c1-c1ccccc1 | inconclusive: 37.9 µM [inhibitor, single point] | 
45 | O=C(NCCCN1CCOCC1)c1cc(-c2ccc3c(c2)OCO3)nc2ccccc12 | inconclusive: 26.9 µM [inhibitor, partial curve, poor fit] | 
46 | CCCCCCNc1nc(Cl)nc(NC(C)(C)CO)n1 | inactive | 
47 | CSCCC(NC(=O)c1ccccc1Br)C(=O)NNC(=O)c1ccncc1 (configuration not stated) | inconclusive: 30.1 µM [inhibitor, partial curve, poor fit] | 
48 | Cc1c(C(=O)N2CCN(C)CC2)oc2ccc(Br)cc12 | inconclusive: 15.1 µM [inhibitor, partial curve, poor fit] | 

Row | Compound | Potency | activity change, negative = inhibition
49 | COc1ccc(/C=C2\CCC(C3CCCC3)C2=O)cc1Cn1cccn1 (configuration not stated) | inconclusive: 21.3 µM [inhibitor, partial curve] | 
50 | CS(=O)(=O)NCc1ccc(C(=O)NCCOc2ccccc2)cc1 | active: 19 µM | 
51 | Cc1nn2c(=O)c(NC(=O)c3ccc(F)cc3)cnc2s1 |  | inactive: 2.19% [at 2.3 µM]
52 | CCc1ccc(CNC(=O)c2cnc3sc(N(CC)CC)nn3c2=O)cc1 | inactive | 
53 | Cc1ccc(CCNC(=O)c2ccc(CS(=O)(=O)c3ccccc3C)o2)cc1 | inconclusive: 37.9 µM [inhibitor, partial curve, poor fit] | 
54 | CCOC(=O)Cc1nnc(NC(=O)CSc2nnc3c(n2)[nH]c2ccccc23)s1 | inconclusive: 37.9 µM [inhibitor, partial curve, poor fit] | 
55 | COc1ccccc1NC(=O)C(=O)NCC(c1ccco1)N1CCc2ccccc2C1 (configuration not stated) | inactive | 
56 | COc1ccc(CCNC(=O)CN2C(=O)COc3ccc(S(=O)(=O)N4CCCCCC4)cc32)cc1OC | inactive | 
57 | C/C=C/c1ccc(OCCCn2cncn2)c(OC)c1 | inconclusive: 37.9 µM [inhibitor, partial curve, poor fit] | 
58 | Cc1nn(-c2cccc(Cl)c2)nc1C(=O)O | inconclusive: 23.9 µM [inhibitor, single point] | 
59 | Cc1cccc(NC(=O)CSc2nnc(-c3cc(C)n(-c4ccccc4)c3C)o2)c1C | active: 16.9 µM | 
60 | CC(C)(C)Nc1c(N)c(=O)oc2ccccc12 | inconclusive: 8.49 µM [inhibitor, partial curve, poor fit] | 
61 | CC(=O)c1cccc(NC(=O)c2ccc3c(Cl)c4c(nc3c2)CCCC4)c1 | inconclusive: 0.675 µM [inhibitor, full curve] | 
62 | Cc1cc(C)nc(NS(=O)(=O)c2ccc(NC(=O)c3ccc4c(c3)OCCO4)cc2)n1 | inconclusive: 26.9 µM [inhibitor, partial curve] | 
63 | COCCNC(=O)c1onc(CSc2ccc(C(C)C)cc2)c1C(=O)O | inconclusive: 37.9 µM [inhibitor, single point] | 
64 | Cc1ccc(/C=N/N2CCN(c3ccccn3)CC2)o1 | inconclusive: 19 µM [inhibitor, single point] | 
65 | CSc1nnc2c(n1)OC(c1cccc(O)c1Cl)Nc1ccccc1-2 (configuration not stated) | inactive | 
66 | CC(C(=O)NCc1ccc(Cl)cc1)n1ccc2cc(S(=O)(=O)N3CCCC3)ccc21 (configuration not stated) | inactive | 
67 | Cc1cc(/C=C(\C#N)C(=O)OCC(=O)Nc2ccc(OC(F)F)cc2)c(C)n1CC(C)C | inconclusive: 15.1 µM [inhibitor, partial curve] | 
68 | O=C(CCc1ccccc1)NNC(=O)COc1ccc([N+](=O)[O-])cc1 | inactive | 
69 | O=C(Nc1cccnc1)c1ccc(-c2ccc(Cl)cc2)o1 | active: 6.01 µM | 
70 | CC(=O)Nc1ccc(OCC(O)Cn2nc(C)c(C)c2C)cc1 (configuration not stated) | inactive | 
71 | COc1ccc(/C=C/C(=O)NC(=S)NNC(=O)c2cc(OC)c(OC)c(OC)c2)cc1OC | inconclusive: 21.3 µM [inhibitor, partial curve, poor fit] | 
72 | COc1ccc(-c2ccc(C(c3c(C)[nH][nH]c3=O)c3c(C)[nH][nH]c3=O)o2)c([N+](=O)[O-])c1 | inconclusive: 19 µM [inhibitor, partial curve] | 
